# Measured values taken from PubChem BioAssay AID624173 (National Center for Advancing Translational Sciences (NCATS), 2012).
# The campaign covered roughly 410,000 compounds. About 490 (0.12%) were called active. The inconclusive results got no clear call from the source; some entries with a clear call stand among them for comparison. Calls follow the shape of the dose curve; as a rule, active = well fitted inhibition curve with a large enough effect; inconclusive = small, poorly fitted or top-dose-only effect; inactive = flat fitted curve, though single readings scatter. Potencies beside an inconclusive call are fits to weak or partial responses and may not hold up.
# Biological target: pyruvate kinase (Trypanosoma brucei) (UniProt Q57TT1)
# Assay: qHTS of Trypanosoma Brucei Inhibitors; also: nearly all actives have a fitted effect of over 50% in size
# Conditions: TbPYK enzyme, Kinase-Glo Plus ATP luminescence, 45 min; series mostly up to 76.8 µM; activity, negative = inhibition: at the top concentration
# Summary of the method: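 Activity of T. brucei pyruvate kinase was followed by Kinase-Glo Plus luminescence after the enzyme reacted 45 min at room temperature with 130 uM ADP (final) and substrate. Test compounds were added before ADP at multiple concentrations.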
# % is scaled to controls: 0 for no effect and ±100 for the full control effect; potency is read from the fitted curve at half-maximal effect; tags tell the direction and shape of the fitted curve.
SMILES,Potency,"activity, negative = inhibition"
S=c1[nH]nc(COc2ccc(Cl)cc2)n1C1CCCCC1,"inconclusive: 15.8 µM [inhibitor, partial curve, poor fit]",
Cc1ccc(N2CCN(C(=O)c3ccccc3NC(=O)/C=C\C(=O)O)CC2)cc1,"inconclusive: 31.6 µM [inhibitor, partial curve, poor fit]",
Cc1oc(S(=O)(=O)N2CCCCC2)cc1NC(=O)Nc1ccccc1,,inactive: 2.63%
Cc1cc(C(=O)NC2CCCC2)on1,,inactive: 0.819%
O=C(CCc1cn(Cc2ccccc2Cl)c2ccccc12)NC1CCCCC1,,inactive: 6.81%
C=C(CN(C)C)C(=O)c1cc(C)ccc1C,"inconclusive: 22.4 µM [inhibitor, partial curve, poor fit]",
COc1ccc2[nH]c(=S)cc(C)c2c1,"inconclusive: 4.47 µM [inhibitor, full curve, poor fit]",
CCOc1ccc(OCC(=O)Nc2cc3c(cc2C(=O)O)OCCCO3)cc1,"inconclusive: 7.08 µM [inhibitor, partial curve]",
C[n+]1ccccc1/C=C/c1c(F)cccc1F,,inactive: -8.08%
O=C1c2c(O)ccc(O)c2C(=O)c2c(NCCNCCO)ccc(NCCNCCO)c21,"inconclusive: 39.8 µM [inhibitor, partial curve, poor fit]",
Cc1sc(NC(=O)c2ccccc2)c(C(=O)c2ccccc2)c1C,"inconclusive: 7.08 µM [inhibitor, partial curve]",
CS(=O)(=O)Nc1ccc(C(=O)Nc2ccc3c(c2)OCCO3)cc1,,inactive: 5.5%
O=C1NC(=S)N(c2ccc(F)cc2)C(=O)/C1=C\c1ccoc1,"inconclusive: 15.8 µM [inhibitor, partial curve, poor fit]",
COc1ccc2[nH]c(=O)c(CN(CC3CCCO3)C(=O)Nc3ccc(F)cc3)cc2c1 (stereo not given),,inactive: -6.26%
CC(=O)c1ccc(OCc2cc(C(=O)N(C)Cc3cc(C)no3)no2)cc1,,inactive: 0%
Cc1nc(COC(=O)c2cc(O)c3ccccc3c2O)cs1,"inconclusive: 39.8 µM [inhibitor, single point]",
Cc1ccn2c(=S)[nH]nc2c1,"inconclusive: 28.2 µM [inhibitor, partial curve, poor fit]",
COc1ccc(NS(=O)(=O)c2cccc(-c3n[nH]c(=S)n3Cc3ccccc3)c2)cc1,"inconclusive: 12.6 µM [inhibitor, partial curve, poor fit]",
COc1ccccc1-n1cc(-c2ccc([N+](=O)[O-])cc2)[nH]c1=S,"inconclusive: 1.26 µM [inhibitor, full curve, poor fit]",
O=C(O)c1ccc(NCc2nc3ccccc3n2Cc2ccccc2)cc1,,inactive: -0.635%
Cc1ccc2c(c1)Cc1nc3ccccc3nc1-2,"inconclusive: 31.6 µM [inhibitor, partial curve]",
COc1ccc(C(=O)O/N=C(/C)c2cccs2)cc1,active: 25.1 µM,
CC(C)(C)c1nc2c(s1)CCc1onc(-c3ccc(Cl)cc3)c1-2,,inactive: 4.48%
Cc1ccc(Nc2nc3ccccc3s2)cc1,"inconclusive: 50.1 µM [inhibitor, single point]",

SMILES,Potency,"activity, negative = inhibition"
CN(C)c1ccc(N=Nc2nc3ccccc3n2C)cc1,active: 14.1 µM,
COc1cc(/C=N/n2c(-c3ccccc3)n[nH]c2=S)cc(OC)c1OC,"inconclusive: 1.12 µM [inhibitor, full curve, poor fit]",
Cc1ccc(C(=O)O[C@H](C(=O)O)[C@H](OC(=O)c2ccc(C)cc2)C(=O)O)cc1,,inactive: -8.9%
CCc1sc(C(C2C(=O)CC(C)(C)CC2=O)C2C(=O)CC(C)(C)CC2=O)cc1[N+](=O)[O-],active: 25.1 µM,
CCOc1ccc(CNC(=O)Cn2nc(C)n3cccc3c2=O)cc1,,inactive: 6.34%
O=C(/C=C/c1ccc(F)cc1)c1cc(Br)ccc1O,,inactive: -3.13%
COC(=O)c1cccc(NC(=O)N(C)CCc2c(C)nn(C)c2C)c1,,inactive: -0.693%
CC(C)(C)OC(=O)NCCCCCc1nnc(SCc2ccc(F)cc2)o1,,inactive: -7.84%
Cc1n[nH]c(=S)n1/N=C/c1ccc(Br)o1,"inconclusive: 12.6 µM [inhibitor, partial curve, poor fit]",
S=c1[nH]nc(-c2cccc(Cl)c2)n1Cc1ccccc1,"inconclusive: 12.6 µM [inhibitor, partial curve, poor fit]",
CC(C)c1cc(-c2n[nH]c(=S)n2Cc2ccccc2)cs1,"inconclusive: 8.91 µM [inhibitor, full curve]",
O=C(N/C(C(=O)N1CCOCC1)=C(\Sc1ncccn1)c1ccccc1)c1ccccc1,,inactive: 1.91%
O=C(Nc1ccc(S(=O)(=O)NCCc2ccccc2)cc1)c1ccco1,"inconclusive: 2.51 µM [inhibitor, partial curve, poor fit]",
O=C(Nc1cccc(C(=O)O)c1)/C(=C\c1ccco1)NC(=O)c1ccc(Br)o1,"inconclusive: 35.5 µM [inhibitor, single point]",
CC(=O)C1=C(C)NC(SCC(N)=O)=C(C#N)C1CC(C)C (stereo not given),"inconclusive: 12.6 µM [inhibitor, partial curve]",
COc1ccc(CCNC(=S)NCCc2ccc(OC)c(OC)c2)cc1OC,"inconclusive: 50.1 µM [inhibitor, single point]",
Cc1cccc(-n2c(-c3csc(C)c3)n[nH]c2=S)c1,"inconclusive: 2.51 µM [inhibitor, full curve, poor fit]",
Cc1cc(C)n2nc3nc(N4CCCCC4)nc(-c4ccco4)c3c2n1,"inconclusive: 35.5 µM [inhibitor, single point]",
COc1ccc(NC(=O)c2c(NCc3ccc(C)o3)sc3c2CCC(C)C3)cc1 (stereo not given),"inconclusive: 31.6 µM [inhibitor, partial curve, poor fit]",
COc1ccccc1-c1n[nH]c(=S)n1-c1ccccc1,"inconclusive: 12.6 µM [inhibitor, partial curve, poor fit]",
CNC(=S)NNC(=O)c1cccn(Cc2ccc(Cl)c(Cl)c2)c1=O,"inconclusive: 17.8 µM [inhibitor, partial curve, poor fit]",
CCN(CC(=O)NCc1ccc(F)cc1)C(=O)c1ccc2c(c1)OCO2,,inactive: 3%
COc1cc(NC2c3ncccc3C(=O)N2Cc2ccco2)cc(OC)c1 (stereo not given),"inconclusive: 22.4 µM [inhibitor, partial curve]",
Cc1ccc(CN(C)C(=O)c2ccc(S(=O)(=O)N(C)c3ccccc3)cc2)o1,"inconclusive: 39.8 µM [inhibitor, partial curve, poor fit]",

SMILES,Potency,"activity, negative = inhibition"
COc1cc(/C=N/n2c(C3CCCCC3)n[nH]c2=S)cc(OC)c1O,"inconclusive: 2.24 µM [inhibitor, full curve]",
CC[C@H]1c2[nH]c3ccc(C(C)C)cc3c2[C@@H]2CCN3C(=O)CCC[C@H]1[C@H]23,,inactive: 3.11%
c1ccc2nc(-c3nc4ccccc4o3)ccc2c1,"inconclusive: 14.1 µM [inhibitor, partial curve]",
CCc1nc(SCC(=O)N2CCc3cc(OC)c(OC)cc3C2)c(C#N)cc1C,"inconclusive: 39.8 µM [inhibitor, single point]",
Cc1ccc(CC(=O)NNC(=O)c2ccncc2)cc1C,"inconclusive: 28.2 µM [inhibitor, partial curve, poor fit]",
O=C(CCl)N=c1sccn1Cc1ccc(Cl)cc1Cl,,inactive: -0.599%
COCCCNC(=O)/C(C#N)=C/c1cccc(NC(=O)c2ccccc2Cl)c1,"inconclusive: 35.5 µM [inhibitor, single point]",
CN(C)c1ccc(/C=N/NC(=O)c2ccnn2C)cc1,"inconclusive: 31.6 µM [inhibitor, single point]",
Cc1ccc(C(=O)/C=C/Nc2ccccn2)cc1,"inconclusive: 35.5 µM [inhibitor, partial curve, poor fit]",
O=C(CSc1nnc(Cc2ccccc2)o1)Nc1ccc(N2CCOCC2)cc1,,inactive: 1.2%
CN=C1C=CC(=C(c2ccc(N(C)C)cc2)c2ccc(N(C)C)cc2)C=C1,"inconclusive: 50.1 µM [inhibitor, single point]",
COc1ccc(N2C(=O)/C(=C/c3cccs3)NC2=S)cc1,"inconclusive: 25.1 µM [inhibitor, partial curve]",
S=c1nc(C2CC2)n(-c2ccccc2)[nH]1,"inconclusive: 6.31 µM [inhibitor, full curve]",
O=C1NC(=O)N(c2ccccc2)C(=O)/C1=C/c1coc2ccc(O)cc2c1=O,"inconclusive: 31.6 µM [inhibitor, partial curve, poor fit]",
Cc1nc(N2CCCC2)ncc1C(=O)Nc1ccccc1,,inactive: 0.156%
Cc1cc(C)c(CN2CCN(C(=O)Cn3cnc(C(=O)Nc4ccc(C)c(C)c4)n3)CC2)c(C)c1,,inactive: -4.68%
COc1ccccc1C(=O)Nc1nc2ccccc2s1,"inconclusive: 22.4 µM [inhibitor, partial curve]",
O=C(CCSc1ccccc1)Nc1ccc(S(=O)(=O)N2CCOCC2)cc1,"inconclusive: 31.6 µM [inhibitor, single point]",
O=C(Nc1nnc(COc2ccc(Cl)cc2)s1)c1ccco1,"inconclusive: 31.6 µM [inhibitor, partial curve]",
COC(=O)NC(=S)Nc1ccc(Oc2ccc(Cl)cc2Cl)c(Cl)c1,"inconclusive: 31.6 µM [inhibitor, single point]",
Cc1onc(-c2ccccc2Cl)c1C(=O)N1CCCc2ccccc21,"inconclusive: 12.6 µM [inhibitor, partial curve, poor fit]",
O=C1N(Cc2ccccc2)CC2(Br)COCOC12O (stereo not given),"inconclusive: 3.16 µM [inhibitor, full curve, poor fit]",
